# According to article PMC4336329 (PLoS ONE, 2015):
# In all, about 310,000 compounds went through this assay and about 14,000 (4.5%) showed an effect of 50% or more. The effect is printed as a negative number. The list shows a part of the results.
# Molecular target: human ether-à-go-go-related gene (hERG) potassium channel (human, UniProt Q12809)
# Experiment: primary screen, population patch clamp on CHO cells stably expressing hERG
# 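Further: peak tail current of the secondary pulse compared with the same well before compound.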
# human ether-à-go-go-related gene (hERG) potassium channel, sequence (Q12809 whole entry, looked up): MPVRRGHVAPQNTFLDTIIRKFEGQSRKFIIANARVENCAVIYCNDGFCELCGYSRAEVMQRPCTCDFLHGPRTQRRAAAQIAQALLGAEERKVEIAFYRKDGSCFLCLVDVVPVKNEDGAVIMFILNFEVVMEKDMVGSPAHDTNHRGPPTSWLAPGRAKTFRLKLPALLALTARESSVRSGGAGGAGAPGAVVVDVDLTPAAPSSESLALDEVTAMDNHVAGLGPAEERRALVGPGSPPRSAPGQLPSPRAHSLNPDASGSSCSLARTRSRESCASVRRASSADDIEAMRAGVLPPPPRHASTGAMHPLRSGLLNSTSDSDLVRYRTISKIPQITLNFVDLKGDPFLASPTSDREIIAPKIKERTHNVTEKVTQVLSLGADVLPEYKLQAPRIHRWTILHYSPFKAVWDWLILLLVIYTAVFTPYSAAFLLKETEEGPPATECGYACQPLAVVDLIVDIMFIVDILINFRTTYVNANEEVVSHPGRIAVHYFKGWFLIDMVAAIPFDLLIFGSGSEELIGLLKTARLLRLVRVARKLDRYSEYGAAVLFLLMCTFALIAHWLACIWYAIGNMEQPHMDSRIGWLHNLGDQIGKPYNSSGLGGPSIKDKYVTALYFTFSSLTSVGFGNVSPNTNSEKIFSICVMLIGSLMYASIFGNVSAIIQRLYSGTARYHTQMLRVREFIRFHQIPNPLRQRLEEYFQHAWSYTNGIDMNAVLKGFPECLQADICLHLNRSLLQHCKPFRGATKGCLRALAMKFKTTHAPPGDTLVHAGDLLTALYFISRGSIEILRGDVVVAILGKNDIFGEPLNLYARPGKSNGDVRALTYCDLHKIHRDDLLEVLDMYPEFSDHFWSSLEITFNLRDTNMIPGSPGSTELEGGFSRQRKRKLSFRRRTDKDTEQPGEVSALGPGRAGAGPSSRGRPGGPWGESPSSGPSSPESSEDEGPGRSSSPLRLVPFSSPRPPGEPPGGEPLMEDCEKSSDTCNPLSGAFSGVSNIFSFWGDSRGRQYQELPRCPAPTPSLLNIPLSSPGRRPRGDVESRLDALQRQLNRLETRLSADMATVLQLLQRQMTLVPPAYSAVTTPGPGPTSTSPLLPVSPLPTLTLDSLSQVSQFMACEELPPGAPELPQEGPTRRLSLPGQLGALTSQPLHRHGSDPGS
row,Compound,"hERG current change (%, negative = inhibition) at 10uM [%]"
1,COc1ccc(CCNC(=O)c2c(C)nn(CC(C)C)c2Cl)cc1OC,-9.71
2,Cc1c(Cl)cccc1NC(=O)CCC(=O)NNC(=O)c1ccco1,18.3
3,CC(C)(C)c1cc(NC(=O)c2ccco2)n(-c2ccccc2)n1,4.64
4,COc1ccc(CCNS(=O)(=O)CCNC(=O)c2ccc(OC)cc2)cc1,-18.6
5,C=CCc1cccc(CNc2nc3ccccc3n2CCC)c1O,5.13
6,Cc1nn(-c2ccccc2)c(C)c1NC(=O)COC(=O)c1ccc(NC(=O)CC#N)cc1,18.4
7,COC(=O)c1ccc2c(=O)n(Cc3ccco3)c(SCC(=O)Nc3ccc(C)c(Cl)c3)nc2c1,15.7
8,Cc1cccc(NS(=O)(=O)c2ccc(Oc3ccccc3)cc2)n1,-21.8
9,COc1ccc(CNC(=O)CCS(=O)(=O)Cc2cccc(Cl)c2)c(OC)c1,21.2
10,O=C(NCCCO)c1cc2c(cn1)[nH]c1ccccc12,0.591
11,COc1ccc(OCC(=O)NC(=S)NNC(=O)COc2ccc(Br)cc2Cl)cc1,12.4
12,COc1ccc(CCNC(=O)C(=O)NCC2CCCN2S(=O)(=O)c2ccc(OC)cc2)cc1 (stereo not shown),-33.5
13,CC(=O)Nc1nc(SCc2cccc3ccccc23)n[nH]1,14.5
14,Cn1cc(Cl)c(C(=O)Nc2cccc(Cl)c2Cl)n1,4.56
15,CCC(Sc1nc2c(cnn2-c2ccc(Cl)cc2)c(=O)[nH]1)C(=O)OC (stereo not shown),1.86
16,COC(=O)c1nc(N)sc1-c1ccc(Cl)cc1,11.1
17,CC(C)C(c1nnnn1C1CCCCC1)N1CCN(C(=O)c2ccco2)CC1 (stereo not shown),3.66
18,COc1cc(CNC2CCCCCC2)cc(OC)c1OC,-4.65
19,Oc1oc(-c2ccco2)nc1C=Nc1cccc(Cl)c1,-6.76
20,CCCN(CCC)C(=O)c1ccc2c(c1)S(=O)(=O)c1ccccc1C2=O,-29.2
21,CC(=O)Nc1ccc(NC(=O)CSc2ccc(C)cc2)cc1,4.42
22,COc1ccc(/C=N\NC(=O)c2ccc([N+](=O)[O-])cc2)cc1COc1c(F)c(F)cc(F)c1F,4.74

row,Compound,"hERG current change (%, negative = inhibition) at 10uM [%]"
1,CC(C(=O)NCCCc1ccccc1)n1cccc1C(=O)c1ccccc1 (stereo not shown),-5.48
2,Cc1cc[n+](CC(=O)Nc2ccccc2)cc1.[Br-],31
3,NC(=O)COn1c(SCC(N)=O)nc2ccccc2c1=O,19.3
4,Cn1c(=O)[nH]c(=O)c2c1nc(Br)n2CC(O)COc1ccccc1 (stereo not shown),-0.394
5,CC(OC(=O)CCc1nc2ccccc2[nH]c1=O)C(=O)c1ccccc1 (stereo not shown),-14
6,CCCN1C2CCCC1CC(NC(=O)c1cc(OC)cc(OC)c1)C2 (stereo not shown),-12.6
7,CCC(C)NC(=O)NC(=O)N(C1CCCCC1)S(C)(=O)=O (stereo not shown),-2.65
8,C=C(C)Cn1c(CCNC(=O)CCC)nc2ccccc21,4.16
9,O=[N+]([O-])c1cccc2ccc(/C=C/c3ccc(C(F)(F)F)cc3)nc12,4.29
10,COc1ccccc1-c1ccc(/C=C2/C=C(C)OC2=O)o1,35.7
11,Nc1cc(=O)nc(SCc2ccccc2)n1Cc1ccco1,-12.7
12,Cc1c(OCC(=O)NCC(O)c2ccccc2)ccc2c(-c3ccccc3)cc(=O)oc12 (stereo not shown),4.93
13,CC(=O)NC(CC(=O)NCCCn1ccc2ccccc21)c1ccccc1 (stereo not shown),19.1
14,CCOC(=O)C1CCN(CCC(=O)Nc2ccc(C)cc2)CC1,-32.4
15,Cc1ccc(S(=O)(=O)c2c(C)cc(C)nc2Cl)c(C)c1,-7.3
16,N/C(=N\OC(=O)c1cccs1)C1(c2ccc(Cl)cc2Cl)CC1,-0.228
17,Cc1c(C(=O)Nc2cccc(Cl)c2)cn2c(nc3ccccc32)c1C#N,6.75
18,Clc1ccc(C(c2ccc(Cl)cc2)n2cc[n+](CC(OCc3ccc(Cl)cc3Cl)c3ccc(Cl)cc3Cl)c2)cc1.[Cl-] (stereo not shown),-62.8
19,CCCc1cc(=O)oc2cc(C)cc(OCC(=O)NCCCN3CCOCC3)c12,-7.61
20,O=[N+]([O-])c1ccc(S(=O)(=O)Nc2ccc(S(=O)(=O)N3CCCC3)cc2)cc1,-14.1
21,CC1CCCC/C1=N\NC(=S)Nc1cccnc1 (stereo not shown),15.8
22,COc1cc(/C=N/NC(=O)c2ccc(-c3ccccc3)cc2)cc(OC)c1OC,8.51

row,Compound,"hERG current change (%, negative = inhibition) at 10uM [%]"
1,Cc1cc(C(=O)NC2CC(C)(C)Cc3c2cnn3-c2ccccc2C)c(C)o1 (stereo not shown),0.287
2,COc1ccccc1-n1ccnc(SCC(=O)NCc2ccccc2Cl)c1=O,8.39
3,Cc1c(S(=O)(=O)N2CCN(c3ccccc3)CC2)c(=O)n(C)c(=O)n1C,-9.44
4,CS(=O)(=O)N(CC(=O)NCC1CCCO1)c1ccc(F)c(Cl)c1 (stereo not shown),-7.66
5,CNC(=S)N1CCC(NC(=O)C(Cc2ccccc2)NC(C)=O)CC1 (stereo not shown),0.532
6,CCCC(=O)Nc1ccc(NC(=O)c2cccc(OC)c2)nc1,-4.43
7,Cc1cccc(C(=O)NCC(=O)OCC(=O)N2CCN(S(=O)(=O)c3ccc(C)cc3C)CC2)c1,-48.9
8,COc1ccc(NC(=O)CSc2nnc(NC(=O)C3CC3)s2)cc1OC,19
9,N#Cc1ccccc1OCC(=O)Nc1c(C(=O)C2CC2)oc2ccccc12,2.52
10,CC(C)NC(=O)c1ccc(-c2ccccc2C(F)(F)F)o1,-7.11
11,C=CCNc1nc(N)c([N+](=O)[O-])c(N2CCCCCC2)n1,-24.9
12,O=C(Nc1nnc(SCc2ccc(Cl)cc2)s1)C1CC(=O)N(Cc2ccccc2)C1 (stereo not shown),17.4
13,CN=c1scc(-c2ccc(Cl)cc2)n1C,-17.3
14,FC(F)Sc1ccc(-n2cc(-c3ccc(Cl)cc3)[n+]3c2CCC3)cc1.[Br-],-74.3
15,Cc1cc(N=Nc2ccc(Cl)cc2)cc(CN2CCOCC2)c1O,11.6
16,CCS(=O)(=O)N1CCC(C(=O)Nc2cccc(C(C)=O)c2)CC1,6.18
17,COc1ccc(CC(=O)OCC(=O)N2CCCc3ccccc32)cc1OC,-5.01
18,O=C(CN1CCCCC1)NNc1nc(-c2ccccc2)c2cc(Cl)ccc2n1,-58
19,N#Cc1ccccc1OCC(=O)C1CC1,15.7
20,COc1ccc(OC)c(CCNC(=O)CSc2ccsc2[N+](=O)[O-])c1,13.8
21,COc1cc(C)ccc1OCc1cc(C(=O)N(C)CCCN2CCOCC2)no1,-1.34
22,CC1=C(C(N)=O)C(c2cccc(OCc3ccccc3)c2)n2nnnc2N1 (stereo not shown),26.8

row,Compound,"hERG current change (%, negative = inhibition) at 10uM [%]"
1,Cc1cc(-c2nc3c4c5c(sc4[nH]c(=O)n3n2)CCC5)c(C)o1,2.88
2,Cn1cc(S(=O)(=O)CC(=O)Nc2ccc3c(c2)OCCO3)c2ccccc21,9.45
3,OCCC1CN(Cc2cccc(C(F)(F)F)c2)CCN1Cc1ccccc1 (stereo not shown),-46.2
4,NC(=O)NC(=O)CSc1nc2cc([N+](=O)[O-])ccc2n1-c1cccc(C(F)(F)F)c1,-57.7
5,O=C(Oc1c(CN2CCOCC2)cc(Cl)c2cccnc12)c1ccccc1,-19.6
6,CN(C)CCCNC(=O)N1c2ccccc2C=Cc2ccccc21.Cl,22.5
7,O=C(OCn1nnc2ccccc2c1=O)c1cccnc1Cl,8.81
8,CC(=O)Nc1cccc(NS(=O)(=O)c2cccc3nsnc23)c1,4.8
9,C/C=C/C=N\NC(=O)c1ccncc1,21.6
10,CCOC(=O)C1CCN(C(=O)CN(c2cccc(OC)c2)S(=O)(=O)c2ccccc2)CC1,-39.8
11,Cc1c(-c2ccccc2)c(=O)oc2cc(O)ccc12,8.4
12,Nc1cccc(-n2nncc2-c2ccccc2)c1,-11
13,CCN(C(=O)CSc1nnc(-c2ccc(Cl)cc2)n1C)C1CCS(=O)(=O)C1 (stereo not shown),-28.4
14,O=[N+]([O-])c1ccccc1-c1ccc(C(=S)N2CCCCC2)o1,6.69
15,COc1ccc2c(C)c(CC(=O)N3CCN(C(=O)C4COc5ccccc5O4)CC3)c(=O)oc2c1C (stereo not shown),-53.7
16,CC(C)c1nc(Cl)c(C#N)c2c1COC(C)(C)C2,-9.97
17,Cc1cc(C)nc(/N=C(\N)N2CCc3ccccc32)n1,-11.7
18,CCCCn1c(N)c(N(CC(C)C)C(=O)c2cc(Cl)nc3ccccc23)c(=O)[nH]c1=O,10.4
19,Cc1cccc(CN2[C@@H](CC(C)C)COCCS2(=O)=O)c1,-6.53
20,O=C(/C=C/c1ccc(OCCCF)cc1)N1CCN(Cc2ccccc2)CC1,-65.6
21,Cc1ccccc1OCC(=O)NN1C(=O)C2C3C=CC(O3)C2C1=O (stereo not shown),12.3
22,Cc1ccc(N(Cc2cc(=O)[nH]c3ccccc23)C(=O)C(C)C)cc1,-10.8
